Measured values reported in the supplement of paper PMC4604168 (melanoma cell lines).
The other results are listed elsewhere or left out. Single values are uncertain, as repeats are few or missing.

These compounds were tested on RPMI7951 (assay: cell count relative to DMSO control; melanoma cells; higher = more viable cells). Settings: library dose: standard library concentration; 72 h.
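Also: cells treated in 1,536-well plates, then fixed and DAPI-stained, with nuclei counted from automated high-throughput microscope images.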

| Structure (SMILES) | cell count |
| --- | --- |
| CCCCCCCCc1ccc(CCC(N)(CO)CO)cc1 [fingolimod] + Cc1cc([N+](=O)[O-])ccc1NS(=O)(=O)c1cc(Cl)ccc1Cl [FH535] (first compound 10 µM, partner dose 5 µM) | 25.8% |
| CN(NC(=O)CC(=O)NN(C)C(=S)c1ccccc1)C(=S)c1ccccc1 + COc1cc2c(Oc3ccc4[nH]c(C)cc4c3F)ncnc2cc1OCCCN1CCCC1 [cediranib] (first compound 0.03 µM, partner dose 2 µM) | 58.7% |
| CCc1ccc(CCOc2ccc(CC3SC(=O)NC3=O)cc2)nc1 (stereo unspecified) [pioglitazone] + O=C1NC(=O)/C(=C/c2ccc(-c3ccc(F)cc3O)o2)S1 [AS252424] (first compound 10 µM, partner dose 5 µM) | 102% |
| Cc1ccc(NC(=O)c2cccc(N(C)C)c2)cc1NC(=O)c1ccc(O)cc1 + CCCCCCCCCCCC1=C(O)C(=O)C=C(O)C1=O [Embelin] (first compound 10 µM, partner dose 6 µM) | 76.1% |
| Cc1ccc(NC(=O)c2cccc(N(C)C)c2)cc1NC(=O)c1ccc(O)cc1 + COc1ccc2c(c1)CCC1C2CCC2(C)C(NCCCCCCN3C(=O)C=CC3=O)CCC12 [U73122] (first compound 10 µM, partner dose 2 µM) | 57.5% |
| CC(C)(C)c1cnc(CSc2cnc(NC(=O)C3CCNCC3)s2)o1 + CN(NC(=O)CC(=O)NN(C)C(=S)c1ccccc1)C(=S)c1ccccc1 [STA4783] (first compound 0.05 µM, partner dose 0.03 µM) | 26.9% |
| CN(NC(=O)CC(=O)NN(C)C(=S)c1ccccc1)C(=S)c1ccccc1 + COc1cc(N2CCC(N3CCN(C)CC3)CC2)ccc1Nc1ncc(Cl)c(Nc2ccccc2S(=O)(=O)C(C)C)n1 [NVP-TAE684] (first compound 0.03 µM, partner dose 0.4 µM) | 67.1% |
| CN(NC(=O)CC(=O)NN(C)C(=S)c1ccccc1)C(=S)c1ccccc1 + CCCCCCCCCCCC1=C(O)C(=O)C=C(O)C1=O [Embelin] (first compound 0.03 µM, partner dose 6 µM) | 78.4% |
| CC(C)(C)c1cnc(CSc2cnc(NC(=O)C3CCNCC3)s2)o1 + O=C(Nc1ccccc1)c1cc([N+](=O)[O-])ccc1Cl [GW9662] (first compound 0.05 µM, partner dose 10 µM) | 41.2% |
| CCCCCCCCc1ccc(CCC(N)(CO)CO)cc1 [fingolimod] + CCCS(=O)(=O)Nc1ccc(F)c(C(=O)c2c[nH]c3ncc(Cl)cc23)c1F [PLX4720] (first compound 10 µM, partner dose 0.4 µM) | 0.793% |
| CCCCCCCCc1ccc(CCC(N)(CO)CO)cc1 [fingolimod] + O=C(O)C(=O)Nc1sc2c(c1C(=O)O)CCNC2 [TCS401] (first compound 10 µM, partner dose 8.33333 µM) | 4.3% |
| CCc1ccc(CCOc2ccc(CC3SC(=O)NC3=O)cc2)nc1 (stereo unspecified) [pioglitazone] + COC(=O)c1sccc1S(=O)(=O)Nc1ccc(Nc2ccccc2)cc1OC [GSK0660] (first compound 10 µM, partner dose 5 µM) | 73.6% |
| COc1cc2c(Oc3ccc4[nH]c(C)cc4c3F)ncnc2cc1OCCCN1CCCC1 [cediranib] + COc1cc(N2CCC(N3CCN(C)CC3)CC2)ccc1Nc1ncc(Cl)c(Nc2ccccc2S(=O)(=O)C(C)C)n1 [NVP-TAE684] (first compound 2 µM, partner dose 0.4 µM) | 51.2% |
| CC(C)(C)c1cnc(CSc2cnc(NC(=O)C3CCNCC3)s2)o1 + CCCCCCCCCCCC1=C(O)C(=O)C=C(O)C1=O [Embelin] (first compound 0.05 µM, partner dose 6 µM) | 48.8% |
| CCCCCCCCc1ccc(CCC(N)(CO)CO)cc1 [fingolimod] + CN1CCN(c2ccc3nc(-c4c(N)c5c(F)cccc5[nH]c4=O)[nH]c3c2)CC1 [Dovitinib] (first compound 10 µM, partner dose 0.5 µM) | 0.348% |
| CCCCCCCCc1ccc(CCC(N)(CO)CO)cc1 [fingolimod] + COc1ccc2c(c1)CCC1C2CCC2(C)C(NCCCCCCN3C(=O)C=CC3=O)CCC12 [U73122] (first compound 10 µM, partner dose 2 µM) | 6.47% |
